{"source": "PubChem BioAssay AID1671188", "about": "(National Center for Advancing Translational Sciences (NCATS), 2021)", "note": "In all, about 100,000 compounds went through this assay and about 250 (0.25%) were called active. Inconclusive means that the source gave no clear call. Such entries were picked first, then a sample of the others. Calls come from the whole dose curve; as a rule, active = well fitted inhibition curve with a large enough effect; inconclusive = small, poorly fitted or top-dose-only effect; inactive = flat fitted curve, though single readings scatter. No potency is given beside an inconclusive call; the fits are too rough. Potency is the fitted concentration of half-maximal effect; tags give direction and shape of the fitted curve."}
{"target": "Alanine aminotransferase 2 (Homo sapiens) (UniProt Q8TD30)", "sequence (Q8TD30 whole entry, looked up)": "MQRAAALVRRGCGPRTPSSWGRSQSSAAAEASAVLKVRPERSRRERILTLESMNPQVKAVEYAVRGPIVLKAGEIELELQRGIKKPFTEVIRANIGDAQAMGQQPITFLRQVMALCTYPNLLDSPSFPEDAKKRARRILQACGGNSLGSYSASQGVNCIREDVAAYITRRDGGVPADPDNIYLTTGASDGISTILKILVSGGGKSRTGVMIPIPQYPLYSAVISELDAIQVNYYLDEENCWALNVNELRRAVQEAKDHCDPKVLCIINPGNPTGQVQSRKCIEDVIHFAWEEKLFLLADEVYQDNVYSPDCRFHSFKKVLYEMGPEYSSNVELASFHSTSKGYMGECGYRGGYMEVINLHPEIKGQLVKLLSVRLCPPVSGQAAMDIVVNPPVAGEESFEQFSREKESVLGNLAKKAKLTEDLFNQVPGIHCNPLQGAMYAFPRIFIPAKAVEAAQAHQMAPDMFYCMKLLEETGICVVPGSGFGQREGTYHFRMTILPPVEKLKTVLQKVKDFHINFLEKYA", "experiment": "Primary qHTS assay for inhibitors of Glutamate pyruvate transaminase 2 (GPT2); note: nearly all actives have a fitted effect of over 60% in size", "conditions": "Recombinant GPT2, coupled pyruvate oxidase/HRP Amplex Red fluorescence; series mostly up to 57.7 µM", "method_in_brief": "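Fluorescence read-out: pyruvate from GPT2 turnover coupled to pyruvate oxidase, HRP and Amplex Red (0.2mM ThPP, 0.2U/mL PO and HRP, 50uM Amplex final). Substrates 250uM a-KG, 2mM L-alanine; enzyme 10ng/uL; 30 min RT.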"}
{"smiles": "C[S+](=O)([O-])NCc1nnc2n1C(C(=O)NCc1ccc(Cl)cc1)CC2", "note": "(configuration not stated)", "Potency": "inactive"}
{"smiles": "CCC(=O)N1CCN(c2nc3c(s2)CC(C(=O)Nc2ccc(OC)c(F)c2)CC3)CC1", "note": "(configuration not stated)", "Potency": "inconclusive [inhibitor, partial curve]"}
{"smiles": "FC(F)(F)c1cccc(Nc2cnc3ccc(N4CCOCC4)nn23)c1", "Potency": "inconclusive [inhibitor, partial curve, poor fit]"}
{"smiles": "COc1ccc(OCC(=O)N2CCCC3(C2)Nc2cccnc2NC3=NC2CCCC2)cc1", "note": "(configuration not stated)", "Potency": "inconclusive [inhibitor, partial curve, poor fit]"}
{"smiles": "COc1ccc(NC(=O)N2CCC[C@H]2c2nc(-c3ccc(F)cc3)n[nH]2)c(OC)c1", "Potency": "inactive"}
{"smiles": "Cc1oc(C2CCN(C(=O)CCc3cc(Cl)no3)CC2)nc1C(=O)N1CCOCC1", "Potency": "inactive"}
{"smiles": "O=C1NCCCCCCN(Cc2ccncc2)[C@@H]2CN(Cc3ccncc3F)CC[C@@H]12", "Potency": "inactive"}
{"smiles": "CS(=O)(=O)c1ccc(N2CCN(C(=O)[C@H]3CC[C@@H](N)C3)CC2)c(F)c1", "Potency": "inconclusive [inhibitor, partial curve, poor fit]"}
{"smiles": "Cc1ccc(S(=O)(=O)N2CCN(C3CCN(CCC(C)C)C3=O)CC2)cc1F", "note": "(configuration not stated)", "Potency": "inconclusive [inhibitor, single point]"}
{"smiles": "Fc1ccc(OC2CN(CC3CC3)C2)cc1F", "Potency": "inconclusive [inhibitor, single point]"}
{"smiles": "O=C([C@H]1CCCN1C(=O)Nc1ccccc1)N1CCC(N2CCOC2=O)CC1", "Potency": "inconclusive [inhibitor, single point]"}
{"smiles": "O=C(c1cc[nH]c(=O)c1)N1CCCn2ccnc2C1c1ccccc1", "note": "(configuration not stated)", "Potency": "inconclusive [inhibitor, single point]"}
{"smiles": "Cc1ccc(C(=O)Oc2ccc(C(O)CNC(C)(C)C)cc2OC(=O)c2ccc(C)cc2)cc1", "note": "(configuration not stated)", "Potency": "inconclusive [inhibitor, partial curve]"}
{"smiles": "CC1=CC(=O)C2C(C)(C)CC(O)CC2(C)C1CO", "note": "(configuration not stated)", "Potency": "inconclusive [inhibitor, partial curve, poor fit]"}
{"smiles": "Cc1cc(CC(=O)N2CC[C@@H](NC(=O)c3ccccn3)[C@H](O)C2)on1", "Potency": "inconclusive [inhibitor, single point]"}
{"smiles": "Cn1c(CN2CC[C@H](c3nc4ccccc4[nH]3)C2)nc2ccccc21", "Potency": "inconclusive [inhibitor, partial curve, poor fit]"}
{"smiles": "CC(C)CC(=O)NCCn1cc(C(=O)O)c(=O)cc1C(O)c1ccccc1", "note": "(configuration not stated)", "Potency": "inconclusive [inhibitor, single point]"}
{"smiles": "CNC(=O)Nc1cccn2nc(-c3ccccc3)nc12", "Potency": "inconclusive [inhibitor, single point]"}
{"smiles": "O=C(c1ccccc1)N1CCc2sc(C(=O)N3CCN(c4ccccc4)CC3)cc2C1", "Potency": "inactive"}
{"smiles": "CCCCc1cc(C[C@H]2CNCC[C@H]2CC(=O)N(CC)CC)no1", "Potency": "inconclusive [inhibitor, partial curve, poor fit]"}
{"smiles": "O=C1CCC[C@H]2C3CC(CN(c4nc5ccccc5s4)C3)CN12", "note": "(some centres not stated)", "Potency": "inconclusive [inhibitor, full curve, poor fit]"}
{"smiles": "Cn1ncc2c(C(=O)N3CCN(c4ncccn4)CC3)cc(-c3ccc(Cl)nc3)nc21", "Potency": "inconclusive [inhibitor, single point]"}
{"smiles": "CC(C)(C)c1ccc(NC(=O)O[C@@H]2CO[C@H]3[C@@H]2OC[C@@H]3Nc2nccc(-c3ccc(-c4ccccc4)cc3)n2)cc1", "Potency": "inactive"}
{"smiles": "CCOc1ccccc1CN1CCN(c2cc(C)nc(N)n2)CC1CCO", "note": "(configuration not stated)", "Potency": "inconclusive [inhibitor, single point]"}
{"smiles": "CN1CCN(CCCNc2nc(CO)nc3ccccc23)CC1", "Potency": "inconclusive [inhibitor, single point]"}
{"smiles": "CCC(=O)N1CCCCCNC(=O)[C@@H]2CCC[C@@H]21", "Potency": "inconclusive [inhibitor, full curve, poor fit]"}
{"smiles": "Cc1ccsc1CN(Cc1cn(-c2ccccc2)nn1)C1CC1", "Potency": "inactive"}
{"smiles": "O=C(Nc1cccc(C(F)(F)F)c1)N[C@H]1CO[C@H]2[C@@H]1OC[C@@H]2n1nnnc1-c1ccc2c(c1)OCO2", "Potency": "inactive"}
{"smiles": "Cc1[nH]nc2c1C(c1ccccc1F)C(C#N)=C(N)O2", "note": "(configuration not stated)", "Potency": "inconclusive [inhibitor, single point]"}
{"smiles": "C=CCCC(CN1CCSCC1)Oc1ncc(CC)cn1", "note": "(configuration not stated)", "Potency": "inconclusive [inhibitor, single point]"}
{"smiles": "COc1cc2c(cc1CN1CCC3(CCCNC3)C1)OCCCO2", "note": "(configuration not stated)", "Potency": "inconclusive [inhibitor, partial curve, poor fit]"}
{"smiles": "CC(C)N1CCC2(CC1)CN(C(=O)c1cccnc1)Cc1ccccc1O2", "Potency": "inactive"}
{"smiles": "COc1ccccc1-c1cc(C(=O)N2CCN(c3ncccn3)CC2)c2cnn(C)c2n1", "Potency": "inconclusive [inhibitor, partial curve, poor fit]"}
{"smiles": "COC(=O)c1ccc(CN2C(=O)[C@@H]3C[C@@H](O)CN3C3(CN(Cc4ccc(F)cc4)C3)C2=O)cc1", "Potency": "inactive"}
{"smiles": "O=C1COCCN1c1cc(-c2ccccc2Oc2ccccc2)cn2cncc12", "Potency": "inconclusive [inhibitor, partial curve, poor fit]"}
{"smiles": "CCN1C(=O)CN(C(=O)CCCc2ccccc2)CC12CCOCC2", "Potency": "inconclusive [inhibitor, full curve, poor fit]"}
{"smiles": "O=C(NC1CCN(c2cc(-c3cccs3)[nH]n2)C1)c1ccccc1", "note": "(configuration not stated)", "Potency": "inconclusive [inhibitor, partial curve]"}
{"smiles": "COCC1CN(C(C)=O)CC12CCN(C(=O)NCc1ccccc1)CC2", "note": "(configuration not stated)", "Potency": "inactive"}
{"smiles": "COC1C(=O)N(C2CCN(Cc3scnc3C)CC2)C12CCOCC2", "note": "(configuration not stated)", "Potency": "inactive"}
{"smiles": "CCNC(=O)c1c(C)oc2c1CN(Cc1sccc1C)CC2", "Potency": "inactive"}
{"smiles": "Cc1ccc(S(=O)(=O)N2CCC(CCC(=O)NC3CC3)CC2)cc1", "Potency": "inactive"}
{"smiles": "CCCCOC(=O)CC(CC(=O)OCCCC)(OC(C)=O)C(=O)OCCCC", "Potency": "inconclusive [inhibitor, single point]"}
